About 1,700 (3.3%) of roughly 52,000 compounds were called active. Cut-off read from the data, not from the text of the source: active = survival mostly below about 52% (no sharp cut-off); inactive = mostly above about 56%. The list shows a part of the results.
Tested on: Wild type
Test: S. aureus survival, RN4220 and DeltatarO strains – OD600, teichoic acid synthesis inhibitors, primary screen (AID 463173)
Details: S. aureus RN4220 wild type/DeltatarO growth, OD600, 18 h, stronger effect = lower value, screened at 18.75 µg/mL (by protocol)

SMILES | survival
CCc1cccc(C)c1NC(=O)CSc1n[nH]c(-c2ccccc2)n1 | inactive: 71%
Cn1ncc2c(Nc3cccc(C#N)c3)ncnc21 | inactive: 93%
Cc1cc(C)cc(NC(=O)C(=O)NCC(c2cccnc2)N2CCOCC2)c1 (centres undefined) | inactive: 108%
COc1cc(NC(=O)CCN2CCN(c3ccccc3)CC2)cc(OC)c1 | inactive: 131%
Cc1ccccc1OCCSc1nnc(-c2cccs2)o1 | inactive: 111%
CCCc1nc(=S)c2ccccc2[nH]1 | inactive: 99%
COc1ccc(Cl)cc1NC(=O)Cn1c(=O)n(Cc2ccc(F)cc2)c(=O)c2cccnc21 | inactive: 74%
CC(=O)N1CCN(CC(O)COc2ccc(Br)cc2)CC1 (centres undefined) | inactive: 105%
COC(=O)C1(CO)NC(c2ccccc2F)C2C(=O)N(c3ccccc3)C(=O)C21 (centres undefined) | inactive: 108%
O=C(Cn1nnc(-c2cccnc2)n1)NCC1CCCO1 (centres undefined) | inactive: 104%
Cc1ccc(NC(=O)Cn2c(=O)n(CCC(C)C)c(=O)c3cccnc32)cc1C | inactive: 90%
CCC(C(=O)NCCC(C)C)N(C(=O)Cn1nnc(-c2ccc(C)cc2)n1)c1cccc(O)c1 (centres undefined) | inactive: 70%
COc1ccccc1N1CCN(C(=O)Cn2c(=O)nc(-c3ccccc3)c3ccccc32)CC1 | inactive: 74%
CC1CN(C(=O)N2CCC(C(=O)NCc3ccccc3F)CC2)c2cc(Cl)ccc2O1 (centres undefined) | inactive: 96%
COc1cccc(NC(=O)N(Cc2cc3ccc(C)cc3n3nnnc23)CC2CCCO2)c1 (centres undefined) | inactive: 104%
CCOc1ccc(NC(=O)C(C)n2c(=O)cc(-c3ccccc3)c3c(C)nn(C)c32)cc1 (centres undefined) | inactive: 72%
CCOC(=O)c1c(C)[nH]c(C)c1S(=O)(=O)N1CCCC(C(=O)N2CCN(c3cccc(Cl)c3)CC2)C1 (centres undefined) | inactive: 89%
COc1ccccc1C(=O)Nc1ccc(-c2cc(C(F)(F)F)nn2-c2ccccc2)cc1 | inactive: 39%
O=C(NCc1ccccc1Cl)c1ccc2c(c1)NC(=O)C(CS(=O)(=O)Cc1ccc(Cl)cc1)N2 (centres undefined) | inactive: 72%
O=C(Nc1ccc(F)c(F)c1)C(c1ccccc1)N1Cc2ccccc2C1=O (centres undefined) | inactive: 73%
COc1ccc(CCNC(=O)CN(c2ccccc2)S(=O)(=O)N(C)C)cc1 | inactive: 72%
COc1ccccc1-c1nn(CCC(=O)Nc2ccccc2)c2nc(C)cc(C)c12 | inactive: 86%
Cc1ccc2nc(-c3ccc(C)s3)c(Nc3ccc4c(c3)OCCO4)n2c1 | inactive: 83%

SMILES | survival
O=C(CN(c1ccc2c(c1)OCCO2)S(=O)(=O)c1ccccc1)NCc1ccco1 | inactive: 111%
CCN(CC)CCNC(=O)c1cc2c(-c3cccc(OC)c3)nn(C)c2s1 | inactive: 121%
O=C(N/N=C1/CSC(=O)N1Cc1cccs1)c1cccs1 | inactive: 112%
Cc1ccc2[nH]cc(C(c3ccccc3)c3ccc(Cl)s3)c2c1 (centres undefined) | inactive: 18%
Cc1nn(C(C)C(=O)NCc2ccco2)c(=O)c2nn(-c3ccccc3)c(C)c12 (centres undefined) | inactive: 32%
Cc1cccc2sc(N(Cc3cccnc3)C(=O)c3ccco3)nc12 | inactive: 72%
COc1ccccc1OCC(=O)NCCS(=O)(=O)N1CCN(c2ccccc2OC)CC1 | inactive: 72%
CCOc1ccccc1NC(=O)Cn1c(=O)n(CCCC(=O)NCc2ccc(C)cc2)c(=O)c2ccccc21 | inactive: 83%
CCOC(=O)C1=C(SCC)c2cc3c(n2C1=O)CCCC3 | inactive: 106%
Cc1ccc(C(=O)N2CCN(CCc3ccncc3)CC2)cc1 | inactive: 88%
CN1C(=O)c2ccccc2Sc2ccc(NC(=O)N3CCN(c4ccc(F)cc4)CC3)cc21 | inactive: 55%
COc1ccc(NC(=O)C(NS(=O)(=O)c2cccc3nsnc23)C(C)C)cc1OC (centres undefined) | inactive: 83%
COc1ccc(-c2nc(S(=O)(=O)c3ccccc3)c(N3CCC(C)CC3)o2)cc1 | inactive: 89%
COc1ccc(S(=O)(=O)Nc2cccc(-c3ccc(N4CCCCC4)nn3)c2)cc1F | inactive: 99%
O=C(CN1CCN(c2ccccn2)CC1)N(c1ccccc1)c1ccc2ccccc2c1 | inactive: 110%
CC1(C)Oc2ccc(C(=O)N/N=C/c3cccs3)cc2NC1=O | inactive: 101%
Oc1ccc(NCc2ccccc2OCc2ccccc2)cc1 | inactive: 100%
CCOc1ccc(CNC(=O)c2cc3cc(S(=O)(=O)N4CCCCC4)ccc3n2C)cc1 | inactive: 85%
COC(=O)C1=CN(CCCN2CCCC2=O)C=C(C(=O)OC)C1c1cccs1 | inactive: 98%
O=C1CCCc2oc3c(c21)CCCC3 | inactive: 107%
Cc1ccc(Cl)cc1-n1c(SCC(=O)NCc2ccccc2)nc2n[nH]c(C)c2c1=N | inactive: 72%
CSc1ccc(CCNC(=O)CN2C(=O)COc3ccc(S(=O)(=O)N4CCCCCC4)cc32)cc1 | inactive: 77%
CC(C)N(C(=O)Cn1c(-c2cccnc2)ccc(C#N)c1=O)C(C)C | inactive: 115%

SMILES | survival
COc1ccc(C(=O)NCCc2csc(-c3ccc(Cl)cc3)n2)c(OC)c1 | inactive: 74%
O=C(CN1c2ccc(Br)cc2-c2ccccc2S1(=O)=O)N1CCCCC1 | inactive: 93%
CC(=O)Nc1c(C)nn(-c2ccccc2)c1N1CCC(C(=O)Nc2ccccc2C(F)(F)F)CC1 | inactive: 82%
Cc1ccc(NC(=O)N2CCN(Cc3nc4ccc(C)cc4o3)CC2)cc1 | inactive: 119%
COc1cccc(Nc2nc3c(S(=O)(=O)c4cc(C)ccc4C)nnn3c3ccsc23)c1 | inactive: 92%
Cc1cc(C)c(NC(=O)CSC2=Nc3ccccc3C3=NC(CC(=O)NCc4cccs4)C(=O)N23)c(C)c1 (centres undefined) | inactive: 76%
CCN1CCc2nc3sc(C(=O)Nc4ccccc4OC(F)(F)F)c(N)c3cc2C1 | inactive: 95%
CCOC(=O)N1CCN(S(=O)(=O)N2CCCC(C(=O)NCc3cc(Br)ccc3OC)C2)CC1 (centres undefined) | inactive: 76%
Cc1cc(=O)c2cc(C(=O)Nc3ccc(F)cc3)ccc2[nH]1 | inactive: 87%
CCOc1ccc(Nc2oc(/C=C/c3ccc(OC)c(OC)c3)nc2C#N)cc1 | inactive: 89%
Cc1cccn2c(=O)c(C(=O)NC(C)c3ccccc3)c(O)nc12 (centres undefined) | inactive: 63%
COc1ccc(C)cc1-n1nnc(S(=O)(=O)c2ccc(C)cc2)c1C | inactive: 70%
COc1ccc2c(C)c(CCC(=O)NCc3ccccc3OC)c(=O)oc2c1 | inactive: 83%
O=C(Cn1c(-c2cccs2)cc2cc(F)ccc21)N1CCN(c2ccccc2)CC1 | inactive: 68%
COc1ccc(CNc2oc(/C=C/c3cc(OC)c(OC)c(OC)c3)nc2C#N)cc1 | inactive: 89%
COCCn1c(SCC(=O)NCc2ccco2)nnc1-c1cccs1 | inactive: 109%
CCN(CC)S(=O)(=O)c1ccc(C(=O)NC2CC(=O)N(c3ccc(OC)c(OC)c3)C2)cc1 (centres undefined) | inactive: 84%
O=C(c1ccccc1Cl)N1CCC(c2nc3ccccc3s2)CC1 | inactive: 87%
CCOCCCNC(=O)C(=O)Nc1c2c(nn1-c1ccccc1)CSC2 | inactive: 81%
O=C(COc1ccc(Cl)cc1)NCC(c1ccco1)S(=O)(=O)c1ccc(F)cc1 (centres undefined) | inactive: 76%
CC(=O)c1ccc(NC(=O)c2cc3sccc3n2Cc2ccc(Cl)cc2)cc1 | inactive: 93%
Cc1ccc(N(CC(=O)NCCSc2ccccc2)S(=O)(=O)c2ccc(F)cc2)cc1 | inactive: 107%
COCCCn1c(=O)c2sccc2n2c(CCCC(=O)Nc3cccc(OC)c3)nnc12 | inactive: 101%

SMILES | survival
COc1ccc(CNC(=O)c2cc3cccc4c3n2CC(C)S4)cc1OC (centres undefined) | inactive: 72%
Cc1ccc(CNS(=O)(=O)c2ccc3[nH]c4c(c3c2)CCCCC4)cc1 | inactive: 84%
Cc1nnc(SCC(=O)O)n1N | inactive: 112%
COc1ccc(Cl)cc1NC(=O)Cn1nc(C(F)(F)F)c2c1CCCC2 | active: 9%
Cc1cccc(NC(=O)C2CCCN(S(=O)(=O)c3ccc4c(c3)CCCC(=O)N4)C2)c1 (centres undefined) | inactive: 78%
COCCCn1c(SCC(=O)Nc2ccc(F)cc2)nc2c(sc3ccccc32)c1=O | inactive: 72%
Cc1ccc(Cl)cc1-n1ncc2c(Nc3ccc4c(c3)OCCO4)ncnc21 | inactive: 99%
O=C(c1ccc2c(c1)N(Cc1c(F)cccc1Cl)C(=O)c1ccccc1S2)N1CCCC1 | inactive: 101%
CCc1ccc(NC(=O)c2ccc(Cn3nc(N4CCN(c5ccccc5)CC4)ccc3=O)o2)cc1 | inactive: 72%
COc1cc(NC(=O)CN2C(=O)COc3ccc(S(=O)(=O)NC4CCCC4)cc32)cc(OC)c1 | inactive: 135%
CCOc1cc(S(=O)(=O)NCCc2ccc(OC)c(OC)c2)c(OCC)cc1-n1cnnn1 | inactive: 105%
CC(=O)N1CCCC1c1nc2ccccc2n1Cc1ccc(F)cc1 (centres undefined) | inactive: 86%
COc1ccc(-c2cc3ncc(C(=O)c4cc([N+](=O)[O-])ccc4O)cn3n2)cc1 | inactive: 58%
O=C(Nc1cccc2cccnc12)c1ccc(-c2cccc(Cl)c2)o1 | active: 0%
CCC(C)c1ccccc1OCC(=O)Nc1ccc(S(=O)(=O)Nc2cc(C)on2)cc1 (centres undefined) | inactive: 68%
COc1cc(NS(=O)(=O)c2c(C(=O)N3CCCCC3)c(C)n(C)c2C)cc(OC)c1OC | inactive: 81%
CC1CCc2c(sc3nnn(CC(=O)Nc4c(C(C)C)cccc4C(C)C)c(=O)c23)C1 (centres undefined) | inactive: 62%
CCCn1c2ccccc2c2cnn(CC(=O)NCCCN(CC)c3ccccc3)c(=O)c21 | inactive: 72%
O=C(Nc1sc2c(c1C(=O)NCC1CCCO1)CCC2)c1cc(=O)c2cc(Cl)ccc2o1 (centres undefined) | inactive: 80%
CCOC(=O)c1cc(-c2ccccc2)n(CC(=O)Nc2ccccc2OCC)c1C | inactive: 88%
